# Laboratory results published in PubChem BioAssay (NCATS).
# “And” between values parts separate entries of the source, which are not always exact repeats. Identical values can stand only once. The list shows a part of the results. The main result of the screen is listed elsewhere. These columns were measured beside it and carry no call. The list favours compounds with an active or inconclusive main result. Potencies come from curve fits of mixed quality, noted in brackets.
# Test: qHTS Assay for Lipid Storage Modulators (AID 1519)
# Settings: Drosophila S3 cells, BODIPY lipid droplet/cell ratio, laser cytometry; measured here: lipid (BODIPY) channel AC50; cells loaded with oleic acid
# Procedure, shortened: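 Cells seeded at 5,000 per well were treated with compounds over a concentration series and loaded with oleic acid (400 uM, as added). Lipid droplet fluorescence (488 nm excitation, 500-530 nm channel) was read by laser-scanning cytometry and normalized to 20 uM Triacsin C.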
# Tags tell the direction and shape of the fitted curve.
row,Compound,AC50
1,Cn1c(=O)c(-c2ccc(F)c(F)c2)nc2cncnc21,"1.78 µM [rising, full curve]"
2,COc1ccc(Oc2ncc3nc(-c4cccc(C#N)c4)c(=O)n(Cc4cccc(OC)c4)c3n2)cc1,"0.708 µM [rising, full curve, poor fit]"
3,O=[N+]([O-])c1cccc2c(Br)[nH]nc12,"25.1 µM [rising, partial curve, poor fit] and 25.1 µM [rising, single point] and 1.26 µM [falling, full curve]"
4,CN(C)C(=O)c1ccc(-c2cc(N(C)Cc3ccco3)ncn2)cc1,"39.8 µM [rising, partial curve]"
5,COCCNc1nc(-c2ccc(C(=O)N(C)C)cc2)nc2ccccc12,"0.631 µM [rising, full curve, poor fit]"
6,CCNc1ncc2nc(CCc3ccccc3)c(=O)n(C[C@H]3CCCO3)c2n1,"0.708 µM [rising, full curve]"
7,C[C@@H](C1=C(CCN(C)C)Cc2ccccc21)c1ccccn1,"35.5 µM [rising, single point]"
8,Clc1cccc(C=NC=Nc2cccc(Cl)c2)c1,"2.51 µM [rising, full curve]"
9,CNc1nc(-c2ccoc2)nc2ccccc12,"2.24 µM [rising, full curve, poor fit]"
10,CC1(C)C(OC(=O)CCC(=O)O)CC[C@]2(C)C1CC[C@@]1(C)C2C(=O)C=C2[C@@H]3C[C@@](C)(C(=O)O)CC[C@]3(C)CCC21C (stereo not given in full),"3.98 µM [rising, full curve]"
